The values below come from paper PMC12136788.

First the molecules themselves.
T1: UNK ZnF1-3 (human, UniProt Q9C0B0 31-174)
T1 sequence: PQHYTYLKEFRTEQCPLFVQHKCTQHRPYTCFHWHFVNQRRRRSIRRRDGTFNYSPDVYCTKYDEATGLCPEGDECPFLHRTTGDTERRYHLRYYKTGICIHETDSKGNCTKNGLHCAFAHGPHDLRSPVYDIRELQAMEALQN

B1: chr2:37325018:37325019:+_ENSMUSG00000035437_ENSMUST00000112920|perfect_dup|FALSE|FALSE (ssRNA)
RNA: GGGAGUUCUACAGUCCGACGAUCAUUAUUUGUAGAUGGUGUCUCAUCUCCUUGCCUGGAAACCAAGACAAAAUCUUCACUAUUAAGAGUAGAUACUGAGUCUGAAGAGACACUGAUUUUUCCAACAGAAGCCUUGUCAUCCAUCAACAGAGGAUUGAGCAUCA
B2: chr2:90620368:90620369:+_ENSMUSG00000008200_ENSMUST00000013759|mus_mus|motif|central (ssRNA)
RNA: GGGAGUUCUACAGUCCGACGAUCAGUGGCUUAUACUUAUUGCCACAUACUUAGGGGGGAAUUUCUCAAAACCAAGGAUCGGAACACCUGCUGCUUGCUGCUGCUCCUGCCUGUGCUGCAAAGCGAGCAUUCUAGGGUGUGUGUCAACAGAGGAUUGAGCAUCA
B3: chr10:33214929:33214930:-_ENSG00000150093_ENST00000302278|hu_hu|hu_hu_hu_mus_True|78_78 (ssRNA)
RNA: GGGAGUUCUACAGUCCGACGAUCAACAAGUUCAUUGAAAAACUCUCCUCUGUCAGUAAGACUGAGCACAUUUUUGUAGCUAAAUGGGCUGGUGCAGUUUUGUUCACUUGUACAAGGAUUUCUUAGCUUUGCUGGGGUUGUGCUCAACAGAGGAUUGAGCAUCA
B4: chr4:76721835:76721836:+_ENSG00000138768_ENST00000264904|hu_mus|hu_hu_hu_mus_True|28_108 (ssRNA)
RNA: GGGAGUUCUACAGUCCGACGAUCGUUGGCUGGGGUUUUCUGAGACGCUCUGGAAUAUAACUCAUGUUUGCUAAUAAAUCCUAGUUUCUCUAUGAAAUUCUCUUUGCAAUCCUCUUCCUCUAUUAGUUGCUUUAGUUUCUCUUUCAACAGAGGAUUGAGCAUCA
B5: chr9:124914678:124914679:-_ENSG00000119421_ENST00000373768|hu_hu|motif|central (ssRNA)
RNA: GGGAGUUCUACAGUCCGACGAUCGGGCUUAUCACAUUGAGCUCCAUAGUGAUGGGCCGCAGCUUUAAGCACAGCAGAACGGAUUUUCACCUCAUCUACUUUCAGCUCCUCUAGAGUGGGCAGCUCCACUAUCCCCGGCAUGACCAACAGAGGAUUGAGCAUCA
B6: chr15:76463590:76463591:-_ENSMUSG00000059323_ENSMUST00000168185|mus_hu|FALSE|FALSE (ssRNA)
RNA: GGGAGUUCUACAGUCCGACGAUCCCGGCUCUGAGCACUGCCCACACCCCGGAUGGCUGCCUGGUAGGCUGCCCGGCUGGUGCUGGCUGUGGCUGCUUCCCUGUUGCUGGCGGGGCCAGGCGUCCAGGCUGCCACCCGUUGUGCCAACAGAGGAUUGAGCAUCA
B7: chr18:33747085:33747086:+_ENSG00000134759_ENST00000351393|hu_mus|motif|central (ssRNA)
RNA: GGGAGUUCUACAGUCCGACGAUCAGACCAAAUGAUUCUACUAUGCACAGAAGUAAUUUUGUUGGUGAAUGCAAAGAGACGGAAAAAUGGAUCAAACUCCGAGGAAGUCGCAUCCUGUCUCUUCCACAAAGACCAGGUUCGAUCCAACAGAGGAUUGAGCAUCA
B8: chr16:94913438:94913439:+_ENSMUSG00000022897_ENSMUST00000122284|mus_mus|motif|central (ssRNA)
RNA: GGGAGUUCUACAGUCCGACGAUCCAGGGAUGUCAUGGAGUGGUGACUGUGGCCAACCUCCAUAGAAUCCUGGGUAGAGGAGCGGUUUGUUGGAGAAUUGUAGACCCUUGGCCUGGUCCGGUUACCCAAGGCUUGCUGUCCAUGCAACAGAGGAUUGAGCAUCA
B9: chr6:38652254:38652255:-_ENSG00000124767_ENST00000373365|hu_hu|hu_hu_hu_mus_False|1_108 (ssRNA)
RNA: GGGAGUUCUACAGUCCGACGAUCCGAAAACUUCAUAGCAGGGAAGUCAAGCUUCUGCAGGAGGGUCAGUCCAAGAACCCUCGUAUAAAAAUCCAGGGACUUCUUAGGAUCCUUAAUUCUUAGCAUCGUUUGCUGCAAUAGAAACAACAGAGGAUUGAGCAUCA
B10: chr7:23164667:23164668:+_ENSG00000122550_ENST00000322275|hu_mus|FALSE|FALSE (ssRNA)
RNA: GGGAGUUCUACAGUCCGACGAUCCACAGGUUCAAUCUGGUACUGAUUUGCUGCAUCUAACAAAGACUGAACAUUGUUGCUAUUCACAGAAAUUCUAGCAGUAUAAGCAAAUUCCACCAGUUGUUCAAUAAUAUCAGGUUCAGCCAACAGAGGAUUGAGCAUCA
B11: chr22:42032659:42032660:+_ENSG00000196419_ENST00000405878|hu_hu|FALSE|FALSE (ssRNA)
RNA: GGGAGUUCUACAGUCCGACGAUCGUCUUCAUUGGUGAACAGCAUGAUCCUCUUAUGACUCAUCUUGAAUUGGACAUCACUAAAGAGGUUGGCACAGACCCACAGCACUUCACUGAGUGAGUAGUCAGAUCCGUGGCCCAUCAUCAACAGAGGAUUGAGCAUCA
B12: chr1:220379288:220379289:-_ENSG00000118873_ENST00000358951|hu_mus|FALSE|FALSE (ssRNA)
RNA: GGGAGUUCUACAGUCCGACGAUCUGAUGCUGCAGCUUUUGCUACUUGGUUUCGACAGGCUCGAAGAGACUGAAAGAGACUAAAUCCAUCAAUCGUCACAAUGGCGGCUGGAUAUAAGAUGCUCAGUUCUUCAUUCUGCUCAGUCAACAGAGGAUUGAGCAUCA
B13: chr15:42709458:42709459:-_ENSG00000103994_ENST00000263805|hu_mus|FALSE|FALSE (ssRNA)
RNA: GGGAGUUCUACAGUCCGACGAUCGGAGGACAGAUAGGGGCCUGGAGAAGGACAGUGAACGGCCCAUGGGAGAAUUCUUCACUAAGGACUUCCCAACGUGGGAGGCAAAAAACUUCAUGAAUCUAUUUUGCUGUCAUCUUCAGCCAACAGAGGAUUGAGCAUCA
B14: chr2:114699772:114699773:+_ENSG00000115091_ENST00000536059|hu_hu|FALSE|FALSE (ssRNA)
RNA: GGGAGUUCUACAGUCCGACGAUCUGACCCAUCUGUAUCAUACUUGUUAAAUUCUUUUACUAAAUCUGGGCAGACAUAACUAUAGCGCUCCUUUACUGCCUUAGCAGUUUCCAAGGAUUGUUCUGGAGGGAUUCCUACUUCUCGCAACAGAGGAUUGAGCAUCA

The list shows a part of the results.

The experiment deals with T1, UNK ZnF1-3. As to the kind of experiment: nsRBNS (natural sequence RNA bind-n-seq); RBNS binding buffer (assumed for nsRBNS): 25 mM Tris pH 7.5, 150 mM KCl, 3 mM MgCl2, 0.01% Triton X-100, 500 ug/ml BSA, 20 U/ml SUPERase-In, 4 C; UNK is unkempt and MSI1 is Musashi-1; names of the RNAs are library labels; protein concentration not given here; high values mean tight binding.
With B1, the binding signal turned out to be 0.692 enrichment R.

Consider B2, for which the binding signal amounted to 0.948 enrichment R.

B3 gave a binding signal of 0.85 enrichment R.

B4 had a binding signal of 0.458 enrichment R.

On to B5, for which the binding signal was 1.19 enrichment R.

As to B6, the binding signal is 0.467 enrichment R.

B7 gave a binding signal of 0.898 enrichment R.

In the case of B8, the binding signal was found to be 0.661 enrichment R.

On to B9, for which the binding signal stood at 0.759 enrichment R.

B10: the binding signal was determined as 1.26 enrichment R.

B11: the binding signal turned out to be 1.27 enrichment R.

B12 showed a binding signal of 0.83 enrichment R.

For B13, the binding signal was 1.46 enrichment R.

With B14, the binding signal was 0.847 enrichment R.
